In PubChem BioAssay AID445 (National Center for Advancing Translational Sciences (NCATS), 2006):
Among all 110,000 compounds or so, about 40 (0.04%) were called active. Inconclusive means that the source gave no clear call. Such entries were picked first, then a sample of the others. Calls follow the shape of the dose curve; as a rule, active = well fitted curve in the direction sought with a large enough effect in the signal ratio (not every such curve was filed as active); inconclusive = small, poorly fitted or top-dose-only effect, or a change in a side signal; inactive = flat fitted curve, though single readings scatter; the % refers to the signal ratio. Where the call is inconclusive, the potency comes from a doubtful curve fit.

experiment: IkB Signaling; conditions: ABC-DLBCL IkBa-CBG/CBR dual luciferase ratio (green luciferase fused to IkBa over red control in OCI-Ly3 lymphoma cells), 4 h; IkBa stabilization activation: at 57.1 µM (top of the series), scaled: untreated 0%, proteasome inhibitor 100% unless noted;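 as to IkBa stabilization activation: 0% = basal untreated cells and 100% = reference inhibitor full response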
How it was run: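 Curves were fitted separately to fusion (green), unfused (red) and ratio luminescence, then classed by r2, magnitude and activity. Cells: OCI-Ly3, 4 h compound plus doxycycline at 37C; 10 uM MG-132 defined full response.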
Potency is read from the fitted curve at half-maximal effect.

SMILES | IkBa stabilization activation | Potency
CCOc1ccccc1NC(=O)c1c(C)cc(C)nc1SCC(=O)c1cccc(OC)c1 | inconclusive: -0.0538% [signal inhibitor] | 
CCOC(=O)CSc1nnc(CNc2ccc(F)cc2)o1 |  | inconclusive: 20 µM [signal inhibitor, partial curve]
Cc1cccc(C)c1Nc1c(-c2ccsc2)nc2ccccn12 |  | inconclusive: 25.1 µM [signal inhibitor, partial curve]
Clc1ccc2c(c1)C1OCCC1C(c1ccco1)N2 (centres undefined) | inconclusive: -0.43% [signal inhibitor] | 
COc1ccc(OC)c(N=Cc2c(O)[nH]c3ccccc23)c1 | inconclusive: 8.86% [signal inhibitor] | 
O=C(CN1CCN(c2ccc(Cl)cc2)CC1)Nc1ccc(F)cc1F |  | inconclusive: 3.16 µM [signal inhibitor]
COC(=O)Cn1c(=O)c2c(nc3n2CCN3c2cccc(C)c2)n(C)c1=O | inconclusive: 2.62% [signal inhibitor] | 
COC(=O)c1ccc(C(=O)OC)c(NC(=O)CN2CCN(c3ccccc3OC)CC2)c1 | inconclusive: 3.7% [signal inhibitor] | 
Nc1ccc(-c2cnc(-c3ccc(N)cc3)nc2)cc1 |  | inconclusive: 25.1 µM [signal inhibitor, partial curve]
COc1ccc2nc3sc(C(=O)Nc4ccccc4F)cc3cc2c1 |  | inconclusive: 31.6 µM [signal inhibitor, single point]
COc1ccc(NC(=O)CCCc2nc(-c3ccco3)no2)c(OC)c1 | inconclusive: 0.599% [signal inhibitor] | 
COc1cccc(OC(=O)CSc2nnc(-c3ccccc3OC)o2)c1 | inactive: -0.612% | 
CCCCn1c(CN2CCN(c3ccc(F)cc3)CC2)nc2c1c(=O)n(C)c(=O)n2C | inactive: 9.14% | 
O=S(=O)(NCCc1ccccc1)c1ccc(N2CCCCS2(=O)=O)cc1 | inconclusive: 1.62% [signal inhibitor] | 
O=c1cc(CN2CCN(S(=O)(=O)c3ccc(Cl)cc3)CC2)nc2sc(-c3ccccc3F)nn12 | inconclusive: 3.68% [signal inhibitor] | 
Cc1cc(C)c(N2CCN(S(=O)(=O)N3CCCCCC3)CC2)c(C)c1 | inconclusive: 1.3% [signal inhibitor] | 
CCOc1ccc(NS(=O)(=O)c2ccc3[nH]cc(C(=O)NCc4ccco4)c(=O)c3c2)cc1 | inconclusive: -0.435% [signal inhibitor] | 
Cc1ccc(C)c(N2CCN(c3nc4ccccc4c4nc(CCn5nc(C)cc5C)nn34)CC2)c1 | inconclusive: 0.389% [signal inhibitor] | 
CCCc1nnc(NC(=O)CCN2C(=O)c3ccccc3C2=O)s1 | inactive: 0.113% | 
CCN(CC)S(=O)(=O)c1cccc(-c2nnc(SCC(=O)NCCC3=CCCCC3)n2N)c1 | inconclusive: 3.14% [signal inhibitor] | 
CCOC(=O)C1=C(C)NC(=O)NC1C (centres undefined) | inactive | 
COc1cc(C2CC(=O)Nc3c2c(=O)[nH]c2nc4ccccc4n32)ccc1O (centres undefined) | inactive: 0.705% | 
Oc1ccccc1O | inactive | 

SMILES | IkBa stabilization activation | Potency
CCn1c(=N)c(C(=O)NCc2cccnc2)cc2c(=O)n3cccc(C)c3nc21 | inactive: -0.239% | 
O=C(Nc1ccccc1)c1ccccc1OCC(O)CN1C(=O)c2ccccc2S1(=O)=O (centres undefined) | inconclusive: 3.29% [signal inhibitor] | 
CC1(C)C(=O)N(CC(=O)Nc2ccc(Cl)cc2)c2ccccc21 | inconclusive: 3.12% [signal inhibitor] | 
O=C(NCc1cccs1)Nc1ccc2c(c1)OCO2 | inconclusive: 10.6% [signal inhibitor] | 
COc1ccccc1-c1nnc(Nc2nc3c(OC)cccc3s2)o1 |  | inconclusive: 20 µM [rising, partial curve]
CCc1nn2c(=O)cc(COC(=O)c3ccccc3NC(=O)COc3ccccc3C)nc2s1 | inconclusive: 3.91% [signal inhibitor] | 
COc1ccc(-c2nn3c(-c4ccc(OC)cc4)nnc3c3ccccc23)cc1 | inactive: -0.528% | 
Cc1ccc2c(c1)cc(C(=O)Nc1ccccc1C)n2C | inconclusive: 1.99% [signal inhibitor] | 
c1ccc(OCc2nc3ccccc3[nH]2)cc1 |  | inconclusive: 15.8 µM [signal inhibitor, partial curve]
COc1cc(OC)cc(-c2nc3n(n2)C(c2ccccc2F)C(C(=O)Nc2cccnc2)=C(C)N3)c1 (centres undefined) | inconclusive: 8.25% [signal inhibitor] | 
CCc1ccc(C2C(C(=O)Nc3ccccc3)=C(C)Nc3c(C(=O)Nc4ccc(C)cc4)cnn32)cc1 (centres undefined) | inconclusive: 1.73% [signal inhibitor] | 
CCOC(=O)Cn1c(=O)oc2cc(S(=O)(=O)N3CCN(c4ccc(Cl)cc4)CC3)ccc21 | inconclusive: 2.5% [signal inhibitor] | 
CCN(CC)c1ccc2c(Cl)c(Br)c(=O)oc2c1 |  | inconclusive: 1.26 µM [signal inhibitor, full curve]
Cc1cc(C)cc(NC(=O)C2CCCN(c3nnc(C)c4c(C)n(-c5ccccc5)nc34)C2)c1 (centres undefined) | inconclusive: -3.11% [signal inhibitor] | 
CCOC(=O)C1CCN(C(c2ccccc2)c2c(O)cc(C)n(Cc3ccco3)c2=O)CC1 (centres undefined) | inconclusive: 1.55% [signal inhibitor] | 
Cc1cc(N2CCCCC2)n2ncc(-c3ccccc3)c2n1 | inactive: 4.26% | 
O=C(Nc1ccc2c(c1)CCC2)C1CCN(c2c3c(nc4ncnn24)CCC3)CC1 | inconclusive: 10.6% [signal inhibitor] | 
Cc1ccc(-n2c(CCC(=O)O)ccc2-c2cccs2)cc1C | inconclusive: 13.8% [signal inhibitor] | 
O=C(CSc1nnc(-c2cccc(F)c2)c(-c2cccc(F)c2)n1)NC1CCCCC1 | inconclusive: 2.31% [signal inhibitor] | 
O=C(Cn1ncc2c(=O)oc3ccccc3c21)N1CCN(c2ccc(Cl)cc2)CC1 | inconclusive: 3.74% [signal inhibitor] | 
CCCC(=O)Nc1ccc2c(c1)nc1n2CCOC1 | inactive: -1.38% | 
COc1cccc2c(=O)c3c(cnn3C)n(C)c12 | inactive: -0.875% | 
CN1C[C@@H](C(=O)N[C@]2(C)O[C@]3(O)[C@H]4CCCN4C(=O)[C@H](Cc4ccccc4)N3C2=O)C[C@H]2c3cccc4[nH]cc(c34)C[C@@H]21 | inactive: -6.85% | 

SMILES | IkBa stabilization activation | Potency
Cc1cc(C)nc(SCNC(=O)c2ccc(F)cc2)n1 | inactive: 1.13% | 
COc1cc(Cl)c(C)cc1NC(=O)c1cnn(-c2ccc(F)cc2F)c1C1CCN(C(=O)OC(C)(C)C)CC1 | inconclusive: 2.97% [signal inhibitor] | 
CCOC(=O)c1c(NC(=O)COc2ccccc2Br)sc2c1CCCCC2 | inconclusive: 14.1% [signal inhibitor] | 
CC(C)(C)c1ccc(C(=O)N(Cc2ccc(F)cc2)Cc2ccco2)cc1 | inconclusive: 0.316% [signal inhibitor] | 
Cc1ccc(-c2nnc(Nc3ccccc3)c3ccccc23)cc1S(=O)(=O)N1CCN(C)CC1 | inconclusive: 19.4% [signal inhibitor] | 
CCCS(=O)(=O)c1c(S(=O)(=O)CCC)c2c(N)cccn2c1C(=O)c1ccc(F)cc1 | inconclusive: 11.5% [signal inhibitor] | 
Cc1ccc(CNC(=O)Cc2ccc(NC(=O)N3CCSc4ncccc43)cc2)cc1 | inconclusive: -0.0619% [signal inhibitor] | 
CC(C)(C)NC(=O)N1CCC(C(=O)O)CC1 | inconclusive: 1.55% [signal inhibitor] | 
CCc1ccccc1NC(=O)c1ccc2c(c1)nnn2C1CCCC1 | inactive: 0.5% | 
COc1ncc2nc(C)c(=O)n(CCC#N)c2n1 | inactive: -0.171% [at 11.4 µM, scaled: untreated 0%, proteasome inhibitor 100%] | 
Cc1cc2cc(CN(Cc3ccco3)C(=O)C3CCCCC3)c(=O)[nH]c2cc1C | inconclusive: 2.05% [signal inhibitor] | 
COCCCNC(=O)CCCn1c(=O)c2cccn2c2ccccc21 | inconclusive: 2.12% [signal inhibitor] | 
COc1ccccc1CNC(=O)CCC1N=C2c3ccccc3N=C(SCc3ccc(Cl)cc3)N2C1=O (centres undefined) | inconclusive: 1.93% [signal inhibitor] | 
O=C1CCCc2cc(S(=O)(=O)NCC3CCC(C(=O)NCc4ccc(F)cc4)CC3)ccc2N1 (centres undefined) | inconclusive: 1.41% [signal inhibitor] | 
Cc1ccc(N2CCN(S(=O)(=O)c3ccc(Cl)c4ccccc34)CC2)c(C)c1 | inconclusive: -1.18% [signal inhibitor] | 
COc1ccccc1N1CCN(S(=O)(=O)c2cccc3nsnc23)CC1 | inactive: 2.24% | 
CCOC(=O)c1c(C)sc(-c2c(-c3cccc(Cl)c3)[nH]c3c2c(=O)n(C)c(=O)n3C)c1O | inconclusive: 1.45% [signal inhibitor] | 
CC(=O)Nc1ccc(NC(=O)C2CCN(c3cnccn3)CC2)cc1 | inconclusive: 1.72% [signal inhibitor] | 
COc1ccc(CCN2C(=O)c3[nH]nc(-c4ccccc4O)c3C2c2ccccc2)cc1 (centres undefined) | inconclusive: 0.65% [signal inhibitor] | 
CCN(CCCNC(=O)c1ccc(Sc2ccc(Cl)cc2)c(NC(C)=O)c1)c1ccccc1 | inconclusive: 0.125% [signal inhibitor] | 
CCn1cc2nc(SCc3ccc(F)cc3)n(CCc3ccccc3)c(=O)c2n1 | inconclusive: 7.59% [signal inhibitor] | 
CCn1c(SCC(=O)c2cc(OC)ccc2OC)nnc1C(C)C | inconclusive: 7.68% [signal activator] | 
CCn1c(=O)cc(OCC(=O)Nc2cc(C)ccn2)c2ccccc21 | inconclusive: -1.85% [signal inhibitor] | 
